# From the supplement of paper PMC8728848
# This is one part of the list.
# Tests used:
# Test in all cases: glycan array binding signal (z-score within array); higher = stronger binding
# Details in all cases: glycan notation: IUPAC condensed, linker removed
# [1] = molecular target: GlcNAc(b1-2)[GlcNAc(b1-4)]Man(a1-3)[GlcNAc(b1-4)][GlcNAc(b1-2)Man(a1-6)]Man(b1-4)GlcNAc(b1-4)GlcNAc
# Method in brief: (§1)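 The binding signal is a Z-score computed within each array. Data were drawn from 3228 arrays in the Consortium for Functional Glycomics database, restricted to those with a known protein sequence. Scores were averaged over arrays of the same protein sequence at different concentrations or buffers, and over linkers, and negative values can be taken as non-binding.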
# [2] = molecular target: GlcNAc(b1-2)[GlcNAc(b1-4)]Man(a1-3)[GlcNAc(b1-4)][GlcNAc(b1-2)[GlcNAc(b1-6)]Man(a1-6)]Man(b1-4)GlcNAc(b1-4)GlcNAc
# Method in brief: as §1
# [3] = molecular target: GlcNAc(b1-2)[GlcNAc(b1-6)]Man(a1-6)[GlcNAc(b1-2)Man(a1-3)]Man(b1-4)GlcNAc(b1-4)GlcNAc
# Method in brief: as §1
# [4] = molecular target: GlcNAc(b1-2)[GlcNAc(b1-6)]Man(a1-6)[GlcNAc(b1-2)Man(a1-3)][GlcNAc(b1-4)]Man(b1-4)GlcNAc(b1-4)GlcNAc
# Method in brief: as §1
# GlcNAc(b1-3)Gal = molecular target: GlcNAc(b1-3)Gal
# Method in brief: as §1
# [5] = molecular target: GlcNAc(b1-3)Gal(b1-3)GalNAc
# Method in brief: as §1
# GlcNAc(b1-3)Gal(b1-4)Glc = molecular target: GlcNAc(b1-3)Gal(b1-4)Glc
# Method in brief: as §1
# [6] = molecular target: GlcNAc(b1-3)Gal(b1-4)GlcNAc
# Method in brief: as §1
# [7] = molecular target: GlcNAc(b1-3)Gal(b1-4)GlcNAc(b1-3)Gal(b1-4)GlcNAc
# Method in brief: as §1
# GlcNAc(b1-3)GalNAc = molecular target: GlcNAc(b1-3)GalNAc
# Method in brief: as §1
# GlcNAc(b1-3)Man = molecular target: GlcNAc(b1-3)Man
# Method in brief: as §1
# [8] = molecular target: GlcNAc(b1-3)[GlcNAc(b1-4)][GlcNAc(b1-6)]GlcNAc
# Method in brief: as §1
# [9] = molecular target: GlcNAc(b1-3)[GlcNAc(b1-6)]Gal(b1-4)GlcNAc
# Method in brief: as §1
# [10] = molecular target: GlcNAc(b1-3)[GlcNAc(b1-6)]GalNAc
# Method in brief: as §1
# [11] = molecular target: GlcNAc(b1-4)Gal(b1-4)GlcNAc
# Method in brief: as §1
# GlcNAc(b1-4)GlcNAc = molecular target: GlcNAc(b1-4)GlcNAc
# Method in brief: as §1
# [12] = molecular target: GlcNAc(b1-4)GlcNAc(b1-4)GlcNAc
# Method in brief: as §1
# [13] = molecular target: GlcNAc(b1-4)GlcNAc(b1-4)GlcNAc(b1-4)GlcNAc(b1-4)GlcNAc
# Method in brief: as §1
# [14] = molecular target: GlcNAc(b1-4)GlcNAc(b1-4)GlcNAc(b1-4)GlcNAc(b1-4)GlcNAc(b1-4)GlcNAc
# Method in brief: as §1
# [15] = molecular target: GlcNAc(b1-4)[GlcNAc(b1-6)]GalNAc
# Method in brief: as §1
# [16] = molecular target: GlcNAc(b1-6)Gal(b1-4)GlcNAc
# Method in brief: as §1
# GlcNAc(b1-6)GalNAc = molecular target: GlcNAc(b1-6)GalNAc
# Method in brief: as §1
# GlcNAc3Prop(b1-4)GlcNAc = molecular target: GlcNAc3Prop(b1-4)GlcNAc
# Method in brief: as §1
# [17] = molecular target: GlcNAc6S(b1-3)Gal(b1-4)GlcNAc
# Method in brief: as §1
# Kdn(a2-3)Gal(b1-3)GalNAc = molecular target: Kdn(a2-3)Gal(b1-3)GalNAc
# Method in brief: as §1
# Kdn(a2-3)Gal(b1-3)GlcNAc = molecular target: Kdn(a2-3)Gal(b1-3)GlcNAc
# Method in brief: as §1
# Kdn(a2-3)Gal(b1-4)Glc = molecular target: Kdn(a2-3)Gal(b1-4)Glc
# Method in brief: as §1
# Kdn(a2-3)Gal(b1-4)GlcNAc = molecular target: Kdn(a2-3)Gal(b1-4)GlcNAc
# Method in brief: as §1
# [18] = molecular target: Kdn(a2-3)Gal(b1-4)[Fuc(a1-3)]GlcNAc
# Method in brief: as §1
# Kdn(a2-6)Gal(b1-4)GlcNAc = molecular target: Kdn(a2-6)Gal(b1-4)GlcNAc
# Method in brief: as §1
# [19] = molecular target: Man(a1-2)Man(a1-2)Man(a1-3)Man
# Method in brief: as §1
# [20] = molecular target: Man(a1-2)Man(a1-2)Man(a1-6)[Man(a1-3)]Man
# Method in brief: as §1
# Man(a1-2)Man(a1-3)Man = molecular target: Man(a1-2)Man(a1-3)Man
# Method in brief: as §1
# [21] = molecular target: Man(a1-2)Man(a1-3)[Man(a1-2)Man(a1-6)]Man
# Method in brief: as §1
# [22] = molecular target: Man(a1-2)Man(a1-3)[Man(a1-2)Man(a1-6)]Man(a1-6)[Man(a1-2)Man(a1-2)Man(a1-3)]Man
# Method in brief: as §1
# [23] = molecular target: Man(a1-2)Man(a1-3)[Man(a1-2)Man(a1-6)]Man(a1-6)[Man(a1-2)Man(a1-2)Man(a1-3)]Man(b1-4)GlcNAc(b1-4)GlcNAc
# Method in brief: as §1
# [24] = molecular target: Man(a1-2)Man(a1-3)[Man(a1-6)]Man(a1-6)[Man(a1-2)Man(a1-3)]Man(b1-4)GlcNAc(b1-4)GlcNAc
# Method in brief: as §1
# [25] = molecular target: Man(a1-2)Man(a1-6)[Man(a1-3)]Man(a1-6)[Man(a1-2)Man(a1-2)Man(a1-3)]Man
# Method in brief: as §1
# [26] = molecular target: Man(a1-2)Man(a1-6)[Man(a1-3)]Man(a1-6)[Man(a1-2)Man(a1-2)Man(a1-3)]Man(b1-4)GlcNAc(b1-4)GlcNAc
# Method in brief: as §1
# Man(a1-3)[Man(a1-6)]Man = molecular target: Man(a1-3)[Man(a1-6)]Man
# Method in brief: as §1
# [27] = molecular target: Man(a1-3)[Man(a1-6)]Man(a1-6)[Man(a1-2)Man(a1-3)]Man(b1-4)GlcNAc(b1-4)GlcNAc
# Method in brief: as §1
# [28] = molecular target: Man(a1-3)[Man(a1-6)]Man(a1-6)[Man(a1-3)]Man
# Method in brief: as §1
# [29] = molecular target: Man(a1-3)[Man(a1-6)]Man(a1-6)[Man(a1-3)]Man(b1-4)GlcNAc(b1-4)GlcNAc
# Method in brief: as §1
# [30] = molecular target: Man(a1-3)[Man(a1-6)]Man(b1-4)GlcNAc(b1-4)GlcNAc
# Method in brief: as §1
# Man(a1-6)Man = molecular target: Man(a1-6)Man
# Method in brief: as §1
binder,measurement,setting,value
"BC2L-D C-terminal domain (Burkholderia cenocepacia), Q39MQ9_BURS3 (protein) LVIVDAVTLLSAYPEASRDPAAPTVIDGRHLYVVSPGDAAQLGHNDSRLFTGLSPGDQLHLRETALALRAEVSVLFIRFALKDAGIVAPIELEVRDAATAVPDADDLLHPSCRPLKDHYWRSDVLAAGATTCTADFAVCDRDGTVSGYFRWETSIEIAGSQPDTKQPGFKPSSDRNGNFSLPPNTAFKAIFYANAADRQDLKLFIDDAPEPAATFVGNSEDGVRLFTLNSKGGKIRIEASANGRQSATDARLAPLSAGDTVWLGWLGAEDGADADYNDGIVILQWPIT",glycan array binding signal (z-score),[1],-0.161
same,glycan array binding signal (z-score),[2],-0.162
same,glycan array binding signal (z-score),[3],-0.162
same,glycan array binding signal (z-score),[4],-0.158
same,glycan array binding signal (z-score),GlcNAc(b1-3)Gal,-0.243
same,glycan array binding signal (z-score),[5],-0.239
same,glycan array binding signal (z-score),GlcNAc(b1-3)Gal(b1-4)Glc,-0.246
same,glycan array binding signal (z-score),[6],-0.241
same,glycan array binding signal (z-score),[7],-0.244
same,glycan array binding signal (z-score),GlcNAc(b1-3)GalNAc,-0.201
same,glycan array binding signal (z-score),GlcNAc(b1-3)Man,-0.243
same,glycan array binding signal (z-score),[8],-0.242
same,glycan array binding signal (z-score),[9],-0.243
same,glycan array binding signal (z-score),[10],-0.206
same,glycan array binding signal (z-score),[11],-0.239
same,glycan array binding signal (z-score),GlcNAc(b1-4)GlcNAc,-0.241
same,glycan array binding signal (z-score),[12],-0.247
same,glycan array binding signal (z-score),[13],-0.244
same,glycan array binding signal (z-score),[14],-0.241
same,glycan array binding signal (z-score),[15],-0.24
same,glycan array binding signal (z-score),[16],-0.242
same,glycan array binding signal (z-score),GlcNAc(b1-6)GalNAc,-0.206
same,glycan array binding signal (z-score),GlcNAc3Prop(b1-4)GlcNAc,-0.238
same,glycan array binding signal (z-score),[17],-0.241
same,glycan array binding signal (z-score),Kdn(a2-3)Gal(b1-3)GalNAc,-0.233
same,glycan array binding signal (z-score),Kdn(a2-3)Gal(b1-3)GlcNAc,-0.242
same,glycan array binding signal (z-score),Kdn(a2-3)Gal(b1-4)Glc,-0.246
same,glycan array binding signal (z-score),Kdn(a2-3)Gal(b1-4)GlcNAc,-0.244
same,glycan array binding signal (z-score),[18],-0.246
same,glycan array binding signal (z-score),Kdn(a2-6)Gal(b1-4)GlcNAc,-0.244
same,glycan array binding signal (z-score),[19],1.67
same,glycan array binding signal (z-score),[20],5.14
same,glycan array binding signal (z-score),Man(a1-2)Man(a1-3)Man,0.519
same,glycan array binding signal (z-score),[21],1.2
same,glycan array binding signal (z-score),[22],4.23
same,glycan array binding signal (z-score),[23],1.52
same,glycan array binding signal (z-score),[24],2.66
same,glycan array binding signal (z-score),[25],5.62
same,glycan array binding signal (z-score),[26],6.24
same,glycan array binding signal (z-score),Man(a1-3)[Man(a1-6)]Man,4.31
same,glycan array binding signal (z-score),[27],6.86
same,glycan array binding signal (z-score),[28],5.02
same,glycan array binding signal (z-score),[29],3.67
same,glycan array binding signal (z-score),[30],3.32
same,glycan array binding signal (z-score),Man(a1-6)Man,-0.061
